{"source": "PubChem BioAssay AID1030", "about": "(National Center for Advancing Translational Sciences (NCATS), 2008)", "note": "The campaign covered roughly 220,000 compounds. About 16,000 (7.3%) were called active. Inconclusive results, whose numbers are uncertain, are shown with a selection of clear calls. Calls come from the whole dose curve; as a rule, active = well fitted inhibition curve with a large enough effect (not every such curve was filed as active); inconclusive = small, poorly fitted or top-dose-only effect, or another doubt; inactive = no such curve, though single readings can be large or run the other way. Potencies of inconclusive entries are left out as doubtful fits. Potency is the fitted concentration of half-maximal effect; tags give direction and shape of the fitted curve.", "data": [{"target": "Aldehyde dehydrogenase 1A1 (Homo sapiens) (UniProt P00352)", "sequence (P00352 whole entry, looked up)": "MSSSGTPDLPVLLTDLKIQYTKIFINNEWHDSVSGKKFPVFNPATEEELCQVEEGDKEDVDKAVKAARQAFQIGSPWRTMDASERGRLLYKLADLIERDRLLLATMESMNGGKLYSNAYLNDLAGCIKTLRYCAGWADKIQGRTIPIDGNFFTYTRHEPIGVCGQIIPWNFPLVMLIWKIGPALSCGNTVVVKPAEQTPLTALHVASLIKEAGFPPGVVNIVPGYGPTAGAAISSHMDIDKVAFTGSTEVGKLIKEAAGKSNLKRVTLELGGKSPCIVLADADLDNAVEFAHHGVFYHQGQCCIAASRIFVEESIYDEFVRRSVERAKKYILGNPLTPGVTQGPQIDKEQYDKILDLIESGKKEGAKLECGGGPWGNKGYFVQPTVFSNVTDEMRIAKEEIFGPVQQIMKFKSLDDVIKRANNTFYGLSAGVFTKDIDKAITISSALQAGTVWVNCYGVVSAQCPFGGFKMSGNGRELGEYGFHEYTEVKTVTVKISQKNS", "experiment": "qHTS Assay for Inhibitors of Aldehyde Dehydrogenase 1 (ALDH1A1);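 for activity, negative = inhibition: plate controls were no enzyme wells and a reference inhibitor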", "conditions": "Purified ALDH1A1, NADH fluorescence, propionaldehyde substrate; series mostly up to 75.3 µM", "values": [{"smiles": "O=C(c1ccccn1)N1CCN(S(=O)(=O)c2ccccc2)CC1", "Potency": "inactive"}, {"smiles": "COc1ccc(-c2cn3c(C)c(C(=O)Nc4cc(NC(C)=O)ccc4OC)sc3n2)cc1", "Potency": "inconclusive [inhibitor, partial curve]"}, {"smiles": "Cc1noc(C)c1COC(=O)[C@H](C)NS(=O)(=O)c1ccc(Cl)c(Cl)c1", "Potency": "inactive"}, {"smiles": "COCC(=O)N1CCC2(CCCN(Cc3ccccc3)C2)CC1", "Potency": "inactive"}, {"smiles": "CCC(c1nnnn1Cc1ccco1)N(Cc1ccccc1OC)Cc1cc2cc(C)ccc2[nH]c1=O", "note": "(stereo unspecified)", "Potency": "inconclusive [inhibitor, single point]"}, {"smiles": "O=C(O)[C@H]1CCCC[C@@H]1c1c2ccc(=O)c(O)c-2oc2c(O)c(O)ccc12", "activity, negative = inhibition": "inactive: -8.96% [at 13.5 µM]"}, {"smiles": "CC1=CC(C)(C)N2C(=O)C(=O)c3cc(OC(=O)c4ccco4)cc1c32", "Potency": "active: 0.631 µM"}, {"smiles": "COc1ccc(-c2n[nH]c(=S)o2)c(OC)c1", "Potency": "inconclusive [inhibitor, partial curve]"}, {"smiles": "Brc1ccccc1-c1nnc(COc2cccc3cccnc23)o1", "Potency": "inconclusive [inhibitor, single point]"}, {"smiles": "O=C(CCN1CCOCC1)Nc1ccc2c(c1)N(C(=O)CN1CCOCC1)c1ccccc1CC2", "Potency": "inactive"}, {"smiles": "CCC(=NCc1ccccc1)C1=C(O)C(C(=O)OC)C(C)(C)CC1=O", "note": "(stereo unspecified)", "Potency": "inconclusive [inhibitor, partial curve]"}, {"smiles": "Cn1c(SCc2ccc([N+](=O)[O-])cc2)nc2c(c1=O)SCC2", "Potency": "inconclusive [inhibitor, single point]"}, {"smiles": "CC(=O)Nc1ccc2nc(NC(=O)COc3ccccc3C)sc2c1", "Potency": "inconclusive [inhibitor, single point]"}, {"smiles": "CSc1nc2ccc(NC(=O)c3ccc(=O)n(C)n3)cc2s1", "Potency": "inactive"}, {"smiles": "CCC1=C(OC(=O)N(CC)CC)N2C(=O)OC(=NCCOC)[C@]2(C)[C@H]2C1=CC[C@H]1C(=O)N(CC(=O)OC)C(=O)[C@H]12", "Potency": "active: 28.2 µM"}, {"smiles": "O=C(NNS(=O)(=O)c1ccc(Br)cc1)c1csnn1", "Potency": "inactive"}, {"smiles": "Cc1ccc(C)o1", "Potency": "inactive"}, {"smiles": "Cc1cc(C)cc(NCc2cc3c(cc2[N+](=O)[O-])OCO3)c1", "Potency": "inconclusive [inhibitor, single point]"}, {"smiles": "O=C(O)/C=C/C(=O)NCCc1cccc(Cl)c1", "Potency": "inconclusive [inhibitor, single point]"}, {"smiles": "CC12CC3(C)CC(C)(C1)CC(C(=O)NC(=S)N1CCCC1)(C2)C3", "Potency": "inactive"}, {"smiles": "COc1ccc(CCNc2nc(-c3sc(C)nc3C)cs2)cc1OC", "Potency": "inconclusive [inhibitor, partial curve]"}, {"smiles": "Cc1ccc2cc(CN(CCCO)S(=O)(=O)c3cccc4nsnc34)c(=O)[nH]c2c1", "Potency": "inconclusive [inhibitor, partial curve]"}, {"smiles": "CCn1c(C)c(C(C)=O)c(N2CCN(c3ccccc3)CC2)nc1=S", "Potency": "active: 11.2 µM"}, {"smiles": "Cc1cc(C)n2cc(CSc3nc4ccccc4s3)nc2n1", "Potency": "inconclusive [inhibitor, single point]"}, {"smiles": "CC(C)C(C(=O)Nc1nccs1)c1ccc(Cl)cc1", "note": "(stereo unspecified)", "Potency": "inactive"}, {"smiles": "O=c1c2c3n(c(=S)nc2[nH]n1-c1ccccc1)CCCCC3", "Potency": "inconclusive [inhibitor, single point]"}, {"smiles": "CCCC(CCC)C(=O)Nc1ccc2c(c1)N(C(=O)CCN1CCN(C)CC1)c1ccccc1CC2", "Potency": "inactive"}, {"smiles": "CC(C)Cn1[nH]c2c3c(ccc2c1=O)C(=O)c1ccccc1C3=O", "Potency": "inconclusive [inhibitor, full curve]"}, {"smiles": "O=C(CS(=O)(=O)c1ccccc1)Nc1ccc(S(=O)(=O)Nc2ccccn2)cc1", "Potency": "inconclusive [inhibitor, single point]"}, {"smiles": "CCCCCCn1c(SCCCC)nc2c1c(=O)[nH]c(=O)n2C", "Potency": "inactive"}, {"smiles": "O=c1cc(O)c2sc3nc(-c4cccnc4)cc(C(F)(F)F)c3c2[nH]1", "Potency": "active: 8.91 µM"}, {"smiles": "CCOc1cccc(SCc2noc(C(=O)NCCOC)c2C(=O)O)c1", "Potency": "inconclusive [inhibitor, single point]"}, {"smiles": "Cc1cc(Br)ccc1NC(=O)c1cnc(N2CCN(c3ccccn3)CC2)c2ccccc12", "Potency": "inconclusive [inhibitor, partial curve]"}, {"smiles": "CCn1c(CNc2ccc(Cl)cc2)nnc1SCc1ccc(Cl)cc1", "Potency": "inconclusive [inhibitor, single point]"}, {"smiles": "CC(=O)c1ccc(NC(=O)C(C)OC(=O)COc2ccc(C#N)cc2)cc1", "note": "(stereo unspecified)", "Potency": "inactive"}, {"smiles": "COc1ccc([N+](=O)[O-])cc1NC(=O)CCN1CCN(c2ccccc2)CC1", "Potency": "inconclusive [inhibitor, single point]"}, {"smiles": "COc1ccc(CCN(C)CC(O)c2ccccc2)cc1OC", "note": "(stereo unspecified)", "Potency": "active: 17.8 µM"}, {"smiles": "CCN(C(=O)CN1CCN(C)CC1)c1cccc2ccccc12", "Potency": "inconclusive [inhibitor, single point]"}, {"smiles": "O=C(COC(=O)c1ccco1)c1ccc2ccccc2c1", "Potency": "inconclusive [inhibitor, single point]"}, {"smiles": "Cc1ccccc1Nc1nc(=O)c2cc([N+](=O)[O-])ccc2s1", "Potency": "inconclusive [inhibitor, single point]"}, {"smiles": "CCN1C(=O)CC(N2CCC(Nc3ccc(OC)cc3)CC2)C1=O", "note": "(stereo unspecified)", "Potency": "inconclusive [inhibitor, single point]"}, {"smiles": "O=C(CS(=O)(=O)Cc1ccccc1)Nc1nnc(C2CCCCC2)s1", "Potency": "inconclusive [inhibitor, partial curve]"}, {"smiles": "O=S(=O)(c1ccc2ccccc2c1)N(CC1CO1)c1ccccc1", "note": "(stereo unspecified)", "Potency": "inconclusive [inhibitor, single point]"}, {"smiles": "C=CCN(CC=C)CCOc1cccc(Oc2ccccc2)c1", "Potency": "inconclusive [inhibitor, single point]"}, {"smiles": "Clc1ccccc1-c1cc(NCCN2CCOCC2)ncn1", "Potency": "inconclusive [inhibitor, single point]"}, {"smiles": "O=C(NCc1ccco1)c1cnn2c(C(F)(F)F)cc(-c3ccccc3)nc12", "Potency": "inconclusive [inhibitor, single point]"}]}]}
